The other results are listed elsewhere or left out. Single values are uncertain, as repeats are few or missing.
Columns and labels:
Assay in all cases: cell count relative to DMSO control; melanoma cells; higher = more viable cells
Details in all cases: library dose: low library concentration; 72 h
[1] = test system: MZ2-MEL
[2] = test system: MeWo
[3] = test system: RPMI7951
[4] = test system: RVH-421
[5] = test system: SkMel28
[6] = test system: SkMel2
[7] = test system: SkMel30
[8] = test system: UACC62
[9] = test system: WM115
[10] = test system: WM1716
[11] = test system: WM1745
[12] = test system: WM3526
[13] = test system: WM3619
[14] = test system: WM451Lu
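Also: cell number obtained by counting DAPI-stained nuclei in high-throughput microscope images with image analysis software, screen run in 1,536-well plates.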

| SMILES | cell count [1] | cell count [2] | cell count [3] | cell count [4] | cell count [5] | cell count [6] | cell count [7] | cell count [8] | cell count [9] | cell count [10] | cell count [11] | cell count [12] | cell count [13] | cell count [14] |
| --- | --- | --- | --- | --- | --- | --- | --- | --- | --- | --- | --- | --- | --- | --- |
| N#CC[C@H](C1CCCC1)n1cc(-c2ncnc3[nH]ccc23)cn1 [ruxolitinib] + C[C@@H](N)c1ccc(C(=O)Nc2ccnc3[nH]ccc23)cc1 [RKI983] (first compound 1 µM, partner dose 0.4 µM) | 92.4% | 89% | 86% | 57% | 111% | 94% | 106% | 139% | 121% | 85% | 86.5% | 129% | 116% | 57.6% |
| CC[C@]1(O)C[C@H]2CN(CCc3c([nH]c4ccccc34)[C@@](C(=O)OC)(c3cc4c(cc3OC)N(C=O)[C@H]3[C@@](O)(C(=O)OC)[C@H](OC(C)=O)[C@]5(CC)C=CCN6CC[C@]43[C@@H]65)C2)C1 [vincristine] + COc1ccc(Cl)c(Nc2nc3ccccc3nc2NS(=O)(=O)c2cccc(NC(=O)C(C)(C)N)c2)c1 [XL147] (first compound 0.0001 µM, partner dose 0.8 µM) | 88.8% | 96.6% | 83.4% | 74.5% | 86.9% | 98.3% | 78.9% | 66.3% | 58.6% | 46.4% | 84.7% | 88.2% | 66.8% | 57.8% |
| Cc1cc(Nc2cc(N3CCN(C)CC3)nc(Sc3ccc(NC(=O)C4CC4)cc3)n2)n[nH]1 [Tozasertib] + Cc1cn(-c2cc(NC(=O)c3ccc(C)c(Nc4nccc(-c5cccnc5)n4)c3)cc(C(F)(F)F)c2)cn1 [nilotinib] (first compound 0.006 µM, partner dose 0.2 µM) | 94.9% | 89% | 74% | 92.6% | 99.3% | 97.9% | 94.2% | 91% | 101% | 91.1% | 75.5% | 105% | 117% | 107% |
| Cc1cc(Nc2cc(N3CCN(C)CC3)nc(Sc3ccc(NC(=O)C4CC4)cc3)n2)n[nH]1 [Tozasertib] + CS(=O)(=O)CCNCc1ccc(-c2ccc3ncnc(Nc4ccc(OCc5cccc(F)c5)c(Cl)c4)c3c2)o1 [lapatinib] (first compound 0.006 µM, partner dose 0.8 µM) | 98.8% | 90.1% | 100% | 89.3% | 72.6% | 90.8% | 119% | 94.8% | 90.8% | 95.6% | 88.5% | 77% | 102% | 102% |
| N#CC[C@H](C1CCCC1)n1cc(-c2ncnc3[nH]ccc23)cn1 [ruxolitinib] + CC(C)C[C@H](NC(=O)[C@H](Cc1ccccc1)NC(=O)c1cnccn1)B(O)O [Bortezomib] (first compound 1 µM, partner dose 0.001 µM) | 95.7% | 79.2% | 107% | 78.1% | 100% | 95.3% | 115% | 126% | 112% | 88.3% | 90.5% | 102% | 61.6% | 96.3% |
